# Laboratory results reported in the supplement of paper PMC8728848.
# The other results are listed elsewhere or left out.
# B1: Als3-N (Candida albicans) (protein)
# chain: KTITGVFNSFNSLTWSNAATYNYKGPGTPTWNAVLGWSLDGTSASPGDTFTLNMPCVFKFTTSQTSVDLTAHGVKYATCQFQAGEEFMTFSTLTCTVSNTLTPSIKALGTVTLPLAFNVGGTGSSVDLEDSKCFTAGTNTVTFNDGGKKISINVDFERSNVDPKGYLTDSRVIPSLNKVSTLFVAPQCANGYTSGTMGFANTYGDVQIDCSNIHVGITKGLNDWNYPVSSESFSYTKTCSSNGIFITYKNVPAGYRPFVDAYISATDVNSYTLSYANEYTCAGGYWQRAPFTLRWTGYRNSDAGSNGIVIVATTRTVTDSTTAVTTLPFDPNRDKTKTIEILKPIPTTTITTSYVGVTTSYLTKTAPIGETATVIVDIPYHTTTTVTSKWTGTITSTTTHTNPTDSIDTVIVQVP
# How the values were obtained:
# Assay in all cases: glycan array binding signal (z-score within array); higher = stronger binding
# Conditions in all cases: glycan notation: IUPAC condensed, linker removed
# Fuc(a1-2)Gal = target: Fuc(a1-2)Gal
# How it was run: (§1)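 Glycan array data were curated from 3228 arrays in the Consortium for Functional Glycomics database and kept only where the protein sequence was available. Glycan names were converted to IUPAC-condensed notation, and columns mapping to the same glycan were averaged. The binding signal is a within-array Z-score, averaged across arrays of the same protein sequence at different concentrations or buffers and across linkers. Negative Z-scores can be read as non-binding.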
# Fuc(a1-2)Gal(b1-3)GalNAc = target: Fuc(a1-2)Gal(b1-3)GalNAc
# How it was run: as §1
# [1] = target: Fuc(a1-2)Gal(b1-3)GalNAc(a1-3)[Fuc(a1-2)]Gal(b1-4)Glc
# How it was run: as §1
# [2] = target: Fuc(a1-2)Gal(b1-3)GalNAc(a1-3)[Fuc(a1-2)]Gal(b1-4)GlcNAc
# How it was run: as §1
# [3] = target: Fuc(a1-2)Gal(b1-3)GalNAc(b1-3)Gal
# How it was run: as §1
# [4] = target: Fuc(a1-2)Gal(b1-3)GalNAc(b1-3)Gal(a1-4)Gal(b1-4)Glc
# How it was run: as §1
# [5] = target: Fuc(a1-2)Gal(b1-3)GalNAc(b1-4)[Neu5Ac(a2-3)]Gal(b1-4)Glc
# How it was run: as §1
# Fuc(a1-2)Gal(b1-3)GlcNAc = target: Fuc(a1-2)Gal(b1-3)GlcNAc
# How it was run: as §1
# [6] = target: Fuc(a1-2)Gal(b1-3)GlcNAc(b1-2)Man(a1-3)[Fuc(a1-2)Gal(b1-3)GlcNAc(b1-2)Man(a1-6)]Man(b1-4)GlcNAc(b1-4)GlcNAc
# How it was run: as §1
# [7] = target: Fuc(a1-2)Gal(b1-3)GlcNAc(b1-2)Man(a1-3)[Fuc(a1-2)Gal(b1-3)GlcNAc(b1-2)Man(a1-6)]Man(b1-4)GlcNAc(b1-4)[Fuc(a1-6)]GlcNAc
# How it was run: as §1
# [8] = target: Fuc(a1-2)Gal(b1-3)GlcNAc(b1-3)Gal(b1-4)Glc
# How it was run: as §1
# [9] = target: Fuc(a1-2)Gal(b1-3)GlcNAc(b1-3)GalNAc
# How it was run: as §1
# [10] = target: Fuc(a1-2)Gal(b1-3)GlcNAc(b1-3)[Fuc(a1-2)Gal(b1-3)GlcNAc(b1-6)]GalNAc
# How it was run: as §1
# [11] = target: Fuc(a1-2)Gal(b1-3)GlcNAc(b1-3)[Gal(b1-4)GlcNAc(b1-6)]Gal(b1-4)Glc
# How it was run: as §1
# [12] = target: Fuc(a1-2)Gal(b1-3)GlcNAc(b1-3)[Neu5Ac(a2-6)Gal(b1-4)GlcNAc(b1-6)]Gal(b1-4)Glc
# How it was run: as §1
# [13] = target: Fuc(a1-2)Gal(b1-3)GlcNAc6S
# How it was run: as §1
# [14] = target: Fuc(a1-2)Gal(b1-3)[Fuc(a1-4)]GlcNAc
# How it was run: as §1
# [15] = target: Fuc(a1-2)Gal(b1-3)[Fuc(a1-4)]GlcNAc(b1-2)Man(a1-3)[Fuc(a1-2)Gal(b1-3)[Fuc(a1-4)]GlcNAc(b1-2)Man(a1-3)]Man(b1-4)GlcNAc(b1-4)GlcNAc
# How it was run: as §1
# [16] = target: Fuc(a1-2)Gal(b1-3)[Fuc(a1-4)]GlcNAc(b1-2)Man(a1-3)[Fuc(a1-2)Gal(b1-3)[Fuc(a1-4)]GlcNAc(b1-2)Man(a1-6)]Man(b1-4)GlcNAc(b1-4)[Fuc(a1-6)]GlcNAc(b1-4)[Fuc(a1-6)]GlcNAc
# How it was run: as §1
# [17] = target: Fuc(a1-2)Gal(b1-3)[Fuc(a1-4)]GlcNAc(b1-3)[Fuc(a1-3)[Gal(b1-4)]GlcNAc(b1-6)]Gal(b1-4)Glc
# How it was run: as §1
# [18] = target: Fuc(a1-2)Gal(b1-3)[Fuc(a1-4)]GlcNAc(b1-3)[Gal(b1-4)GlcNAc(b1-6)]Gal(b1-4)Glc
# How it was run: as §1
# [19] = target: Fuc(a1-2)Gal(b1-4)Fuc(a1-3)]GlcNAc(b1-2)Man(a1-3)[Fuc(a1-2)Gal(b1-4)[Fuc(a1-3)]GlcNAc(b1-2)Man(a1-6)]Man(b1-4)GlcNAc(b1-4)GlcNAc
# How it was run: as §1
# Fuc(a1-2)Gal(b1-4)Glc = target: Fuc(a1-2)Gal(b1-4)Glc
# How it was run: as §1
# Fuc(a1-2)Gal(b1-4)Glc6S = target: Fuc(a1-2)Gal(b1-4)Glc6S
# How it was run: as §1
# Fuc(a1-2)Gal(b1-4)GlcNAc = target: Fuc(a1-2)Gal(b1-4)GlcNAc
# How it was run: as §1
# [20] = target: Fuc(a1-2)Gal(b1-4)GlcNAc(b1-2)Man
# How it was run: as §1
# [21] = target: Fuc(a1-2)Gal(b1-4)GlcNAc(b1-2)Man(a1-3)[Fuc(a1-2)Gal(b1-4)GlcNAc(b1-2)Man(a1-6)]Man(b1-4)GlcNAc(b1-4)GlcNAc
# How it was run: as §1
# [22] = target: Fuc(a1-2)Gal(b1-4)GlcNAc(b1-2)Man(a1-3)[Fuc(a1-2)Gal(b1-4)GlcNAc(b1-2)Man(a1-6)]Man(b1-4)GlcNAc(b1-4)[Fuc(a1-6)]GlcNAc
# How it was run: as §1
# [23] = target: Fuc(a1-2)Gal(b1-4)GlcNAc(b1-2)[Fuc(a1-2)Gal(b1-4)GlcNAc(b1-4)]Man(a1-3)[Fuc(a1-2)Gal(b1-4)GlcNAc(b1-2)Man(a1-6)]Man(b1-4)GlcNAc(b1-4)GlcNAc
# How it was run: as §1
# [24] = target: Fuc(a1-2)Gal(b1-4)GlcNAc(b1-3)Gal(b1-4)GlcNAc
# How it was run: as §1
binder,measurement,setting,value
B1,glycan array binding signal (z-score),Fuc(a1-2)Gal,-0.276
same,glycan array binding signal (z-score),Fuc(a1-2)Gal(b1-3)GalNAc,0.036
same,glycan array binding signal (z-score),[1],-0.121
same,glycan array binding signal (z-score),[2],-0.225
same,glycan array binding signal (z-score),[3],0.208
same,glycan array binding signal (z-score),[4],-0.218
same,glycan array binding signal (z-score),[5],-0.075
same,glycan array binding signal (z-score),Fuc(a1-2)Gal(b1-3)GlcNAc,-0.288
same,glycan array binding signal (z-score),[6],-0.253
same,glycan array binding signal (z-score),[7],-0.101
same,glycan array binding signal (z-score),[8],-0.254
same,glycan array binding signal (z-score),[9],0.228
same,glycan array binding signal (z-score),[10],0.101
same,glycan array binding signal (z-score),[11],-0.291
same,glycan array binding signal (z-score),[12],-0.154
same,glycan array binding signal (z-score),[13],-0.191
same,glycan array binding signal (z-score),[14],-0.271
same,glycan array binding signal (z-score),[15],0.07
same,glycan array binding signal (z-score),[16],0.599
same,glycan array binding signal (z-score),[17],-0.221
same,glycan array binding signal (z-score),[18],-0.259
same,glycan array binding signal (z-score),[19],2.75
same,glycan array binding signal (z-score),Fuc(a1-2)Gal(b1-4)Glc,-0.278
same,glycan array binding signal (z-score),Fuc(a1-2)Gal(b1-4)Glc6S,-0.025
same,glycan array binding signal (z-score),Fuc(a1-2)Gal(b1-4)GlcNAc,-0.282
same,glycan array binding signal (z-score),[20],-0.257
same,glycan array binding signal (z-score),[21],-0.243
same,glycan array binding signal (z-score),[22],-0.083
same,glycan array binding signal (z-score),[23],-0.209
same,glycan array binding signal (z-score),[24],-0.181
